PubChem BioAssay AID1508623 (National Center for Advancing Translational Sciences (NCATS), 2021)
About 450 (0.94%) of roughly 48,000 compounds were called active. Not shown: some 19% with an inconclusive outcome. Calls come from the whole dose curve; as a rule, active = well fitted inhibition curve with a large enough effect; inconclusive = small, poorly fitted or top-dose-only effect; inactive = no such curve, though single readings can be large or run the other way. Some of the results follow.

Assay: Primary qHTS for Identification of Small Molecule Inhibitors of Huntingtin Promoter Activity; note: nearly all actives have a fitted effect of over 50% in size
Conditions: HEK293 HTT promoter firefly luciferase reporter (activity 0% = vehicle and -100% = no light), 24 h; series mostly up to 57.5 µM; activity change, negative = inhibition: at the top concentration
Outline: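 HEK293 luciferase promoter-reporter cells (2,500/well) plated 24 h, then compounds added at up to 57.5 uM final for 24 h at 37 °C. Firefly luminescence by Dual-Glo, normalized to vehicle (0%) and zero RLU (-100%).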

Activity change, negative = inhibition, inactive:
CCOC(=O)c1c(NC(=O)CSc2cn(CCNC(=O)c3cccc(C(F)(F)F)c3)c3ccccc23)sc2c1CCC2 -5.87%, CC(NC(=O)C1CCN(S(=O)(=O)c2ccc(F)cc2)CC1)c1ccccc1 (stereo unspecified) -14.8%, CN1CCC(=C2c3ccccc3CCc3sccc32)CC1, COc1ccc(-c2cc(C(=O)Oc3ccc(C)cc3)c3ccccc3n2)cc1 22%, CC(C)c1ccc(NC(=O)CSC2=Nc3ccccc3C3=NC(CC(=O)NCc4cccs4)C(=O)N23)cc1 (stereo unspecified) -16%, COc1cc(NC(=O)CSc2ncc3c(n2)-c2ccc(Cl)cc2N(Cc2ccccc2)S3(=O)=O)cc(OC)c1 -13.8%, O=C(Cn1ncc2c3ccccc3n(Cc3ccc(Cl)cc3)c2c1=O)NCCC1=CCCCC1 -10.7%, CN(C)CCNC(=O)C1CCN(c2ncnc3c2nc2n3CCCCC2)CC1 -15.3%, COc1ccc(CNC(=O)c2cc3cc4ccc(C)cc4nc3o2)cc1 4.4%, O=C(Cc1ccccc1)Nc1c(C(=O)c2ccccc2)oc2ccccc12 6.25%, CCc1ccc(C(=O)COC(=O)C(Cc2c[nH]c3ccccc23)NC(=O)c2ccc(CC)cc2)cc1 (stereo unspecified) -10.4%, Cc1ccc(NC(=O)CSc2nnc(-c3nnn(-c4ccc(F)cc4)c3C)o2)cc1Br -2.99%, Cc1nc(-c2cccc(F)c2)sc1CCNC(=O)c1c(F)cccc1Cl -36.8%, COc1cccc(N2CCN(C(=O)c3cc4c(s3)-c3c(C)cccc3OC4)CC2)c1 -2.41%, CCCCn1c(=NC(=O)C(C)(C)Oc2ccc(Cl)cc2)c(C(=O)OCC)cc2c(=O)n3ccccc3nc21 -8.7%, COC(=O)Nc1nc2ccc(C(=O)c3ccc(F)cc3)cc2[nH]1 -14.5%, Cc1ccc(OCC(=O)Nc2nonc2-c2ccc(C)c(C)c2)cc1C -2.06%, COc1ccccc1C(=O)Nc1cccc(C(=O)OCc2cc(=O)n3nc(C4CC4)sc3n2)c1 -7.45%, CC1CCCN(CCCNC(=O)c2ccc3c(c2)N(Cc2cccc(Cl)c2)C(=O)c2ccccc2S3(=O)=O)C1 (stereo unspecified) -17.4%, CC(C)Cc1nn2c(=O)cc(COC(=O)CNC(=O)c3ccc(C(C)(C)C)cc3)nc2s1 -7.42%, Cc1ccc(C)c(CNC(=O)c2ccc3c(c2)nc2n3CCOC2)c1 -2.04%, COC(=O)c1ccc(C2c3c(oc4ccc(C)cc4c3=O)C(=O)N2Cc2ccc3c(c2)OCO3)cc1 (stereo unspecified) -12.1%, COc1cccc(CNC(=O)Cn2ccc3cc(S(=O)(=O)N4CCCC4)ccc32)c1OC -20.6%, CCOC(=O)c1c(Nc2ccc(O)cc2)nnc(-c2ccccc2)c1-c1ccccc1 -17.5%, Cc1ccc(S(=O)(=O)c2nnn3c2nc(NCc2ccc4c(c2)OCO4)c2sccc23)cc1 -13.2%, Cc1cc(C)cc(NC(=O)c2ccc3oc(=O)c(S(=O)(=O)c4ccc(F)cc4)cc3c2)c1 -12.5%, COc1ccc(N2CCN(C(=O)C3CCN(S(=O)(=O)c4cccc5nonc45)CC3)CC2)cc1 -27.2%, O=C(Nc1ccc(-c2nc3ccccc3o2)c(O)c1)c1ccccc1 62.4%, Cc1ccc(-c2nnc(Nc3ccc(C(N)=O)cc3)c3ccccc23)cc1S(N)(=O)=O -0.664%, COc1ccc(NC(=O)Cn2c(=O)c3cccn3c3ccccc32)cc1Cl -11.6%, CCOC(=O)c1noc2ncnc(Nc3cc(Cl)c(OC)cc3OC)c12 -18.4%, COc1ccc(C)cc1NC(=O)Nc1cc(C(=O)NCc2ccc(C)cc2)ccc1N1CCCC1 -17.9%, COc1ccc(-c2nc3sc(CCNC(=O)Cc4ccc(F)cc4)c(C)n3n2)cc1 -6.61%, Cc1sc(-c2cc3ccccc3oc2=O)nc1-c1ccc(Cl)c(Cl)c1 -7.62%, CCOc1ccc(CNCc2c(C(=O)O)c(C)n(Cc3ccc(C)cc3)c2C)cc1 -22.4%, Cc1nnc(N2CCCC(C(=O)NCCN(C)C)C2)c2nn(-c3ccccc3)c(C)c12 (stereo unspecified) 5.1%, CCOc1ccccc1OCCCCn1c(-c2ccc(Cl)cc2)nc2ccccc2c1=O -5.35%, Cc1ccc(-n2ncc3c(N(C)C)ncnc32)cc1Cl 46.6%, CCC(Sc1nc(-c2ccccc2)[nH]c1S(=O)(=O)c1ccc(C)cc1)C(=O)O (stereo unspecified) -13.3%, CCN(CC)CCOc1ccc(C(=C(Cl)c2ccccc2)c2ccccc2)cc1 -9.33%, CC(C)c1ccc(-c2noc(SCC(=O)N3CCCCC3C)n2)cc1 (stereo unspecified) -12.7%, Cc1cc(=O)n(Cc2ccc(F)cc2Cl)c2c1c(C)nn2C -7.93%, Cc1cccc(-c2nc(CCNC(=O)c3ccc(Br)o3)cs2)c1 -6.51%, Cc1cc(C)cc(OC(=O)c2cc(-c3ccc(Cl)cc3)on2)c1 4.83%, CCOc1ccc(NC(=O)c2c(NCc3cccnc3)sc3c2CCC(C)C3)cc1 (stereo unspecified) 2.67%, CCN(CC)C(=O)Cn1c(=O)n(-c2ccc(C)c(C)c2)c(=O)c2c(C)c(C(=O)N(CC)CC)sc21 -14.6%, CC(=O)c1sc(NC(=O)c2c(-c3ccccc3)c(-c3ccccc3)nn(C)c2=O)nc1C 3.3%, CCN1CCN(C(=O)c2cnn(-c3ccc(F)cc3F)c2C2CCN(C(=O)OC(C)(C)C)CC2)CC1 -4.24%, COc1ccc(OC)c(NC(=O)c2cnc(Nc3ccc(C)c(Cl)c3)c3ccccc23)c1 -14.4%, COc1cc(Cl)c(NC(=O)CCc2nc3cccnc3n2-c2ccccc2)c(OC)c1 -28.4%, CC(=O)Nc1c(C)nn(-c2ccccc2)c1N1CCC(C(=O)NCc2cccc(Cl)c2)CC1 -17.5%, CC1=C(C(=O)Nc2ccc(Cl)cc2)C(c2cccs2)n2nc(SCc3cccc(C)c3)nc2N1 (stereo unspecified) -0.34%, Cc1ccc(NC(=O)c2cnc(SCC(=O)N3CCCc4ccccc43)n(C)c2=O)cc1 -14%, CCOc1ccc(NC(=O)CCNS(=O)(=O)c2ccc3c(c2)CCCC(=O)N3)cc1 -16.3%, O=c1c(NCc2ccccc2Cl)nccn1-c1ccccc1 4.63%, CCOC(=O)CCC(=O)Nc1nnc2n1CCS2 9.72%, CC(=O)N1CCc2cc(S(=O)(=O)NC(CC(C)C)C(=O)NCc3ccccc3Cl)ccc21 (stereo unspecified) -13.8%, COc1ccc(CNC(=O)CCc2c(C)c3cc4c(C)c(C)oc4cc3oc2=O)cc1 -2.8%, Cc1ccc(C(=O)Nc2nnc(S(=O)(=O)N3CCCCCC3)s2)cc1 39.6%, CC(=O)Nc1ccc(-c2nnc3n(Cc4ccc(C)cc4)c(=O)c4ccccc4n23)cc1 -5.07%, CCCCNc1ccc(C(=O)OCCN(C)C)cc1 15.8%, CCC(=O)N1CCc2cc(Br)cc(S(=O)(=O)N3CCC(C(=O)Nc4ccccc4F)CC3)c21 -3.12%, Cc1cc(C)cc(C(=O)n2nc(C)c(S(=O)(=O)N3CCCCCC3)c2C)c1 -13.4%, Cc1c(C(=O)N2CCN(c3ccc(F)cc3)CC2)sc2nc3n(c(=O)c12)CCC3 0.194%, O=C(Cn1ccn(-c2ccc(F)cc2)c(=O)c1=O)Nc1ccccc1C(F)(F)F -10.9%, CCCCc1nn2c(=O)cc(COC(=O)c3ccccc3NC(=O)c3cccs3)nc2s1 -13.9%, CC(C)Cn1c(C2CC(=O)N(c3ccccc3Cl)C2)nc2ccccc21 (stereo unspecified) 1.84%, Cc1oc(-c2ccc(C(=O)NCCN(C)C)cc2)nc1CS(=O)(=O)c1ccccc1 -9.53% [at 11.5 µM], O=C(Cn1nc(-c2ccccc2)nc(Cc2ccccc2)c1=O)Nc1ccc(Cl)cc1 -15.2%, Cc1cccc(NC(=O)Cn2nnc(C(=O)NCc3ccco3)c2N)c1 -15%, Cc1cccc(-n2c(N)cc(=O)nc2SCC(=O)Nc2ccc(F)cc2)c1C -34.4% [at 11.5 µM], COc1ccc(Br)cc1C(=O)Nc1ccc(-c2nc3ncccc3o2)cc1C -8.52%, Cc1ccc(C(=O)NCC(=O)OCc2cc(=O)n3ccsc3n2)cc1 -0.487%, CCc1ccc(NC(=O)CSc2ccc3nc(-c4ccc(OC)cc4)cn3n2)cc1 9.46%, COC(=O)CSc1nc2sc3c(c2c(=O)n1-c1ccc(C)cc1)CC(C(C)C)OC3 (stereo unspecified) -2.23%, CCN(CC)S(=O)(=O)c1ccc2c(c1)N(CC(=O)Nc1ccc(OC)cc1)C(=O)CS2 -19.9%, CCOc1ccc(NC(=O)C2CCCN(c3cnccn3)C2)cc1 (stereo unspecified) 12.2%, CCOc1ccc(Cl)cc1CNCCCSc1nnnn1C -1.9%, CCCCCOC(=O)Nc1nc(=O)n([C@@H]2O[C@H](C)[C@@H](O)[C@H]2O)cc1F 2.49%, Cc1ccc(CN(C(=O)COc2ccccc2[N+](=O)[O-])c2ccccn2)cc1 -17.6%, CCCN(CCC)CCNC(=O)CN1C(=O)COc2ccc(S(=O)(=O)N3CCOCC3)cc21 -12.2%, CCC(CC)C(=O)Nc1nnc(S(=O)(=O)N2CCc3ccccc32)s1 -10%, Cc1cccc(OCC(=O)NCCc2nc3ccccc3[nH]2)c1C -2.25%, O=C(NCc1ccccc1Cl)C1CCN(C(=O)N2CCOc3ccccc32)CC1 -4.39%, CCOc1ccc(-n2nc(CO)c(C(=O)NCc3ccccn3)n2)cc1 -15%, COc1ccc(C2=NN(S(C)(=O)=O)C(c3cn(-c4ccccc4)nc3-c3cccs3)C2)cc1 (stereo unspecified) -6.94%, C#CCN1C(=O)C(O)(CC(=O)c2ccc(OC)c(OC)c2)c2cc(Br)ccc21 (stereo unspecified) -18.2%, COc1ccc(C(=O)NCC(c2ccc3c(c2)OCO3)N2CCOCC2)cc1 (stereo unspecified) -21%, Cc1oc2ncnc(N3CCOCC3)c2c1C(=O)N1CCN(c2cccc(C(F)(F)F)c2)CC1 -9.41%, CCCn1c(=N)c(C(=O)NCc2cccnc2)cc2c(=O)n3cccc(C)c3nc21 -1.01%, COc1cccc(-c2ccnc3c(-c4ccc(F)cc4)c(C)nn23)c1 8.99%, Cc1ccc(Oc2nc3c(c(=O)n(Cc4ccccc4)c(=O)n3C)n2C)cc1C -14.6%, CC1(C)CC(=O)c2cc(C(=O)Nc3ccc(Br)cc3)c(=O)[nH]c2C1 54.3%, COc1ccc(NC(=O)C2=C(C)Nc3ncnn3C2c2ccc(C)o2)cc1 (stereo unspecified) -5.9%, CN(C)CCOC(c1ccc(Cl)cc1)c1ccccn1 (stereo unspecified) 6.31%, Cc1ccc(-c2nc3ccccn3c2Nc2ccc3c(c2)OCCO3)s1 -22.4%
